Measurements: US12421317B2, “Polynucleotides encoding anti-glucagon-like peptide 1 receptor (GLP1R) antagonist antibodies” (Regeneron Pharmaceuticals, Inc., priority 2020, dated 2025)

Tests used:
[1] = test system: mfGLP1R-MMH (Macaca fascicularis GLP1R-MMH); test: SPR (Biacore 4000) binding of captured GLP1R mAbs to mfGLP1R-MMH
Procedure: The equilibrium dissociation constant (KD) for GLP1R binding to selected GLP1R monoclonal antibodies (mAbs) was determined using a real-time surface plasmon resonance biosensor using a Biacore 4000 instrument. All binding studies were performed in 10 mM HEPES, 150 mM NaCl, 3 mM EDTA, and 0.05% v/v Surfactant Tween-20, pH 7.4 (HBS-ET) running buffer at 25° C. and 37° C. The Biacore CM5 sensor chip surface was first derivatized by amine coupling with human Fc specific mouse mAb to capture different GLP1R mAbs. Different concentrations (100, 25, and 6.25 nM) of the N-terminal region of human GLP1R-MMH (hGLP1R-MMH; SEQ ID NO: 59), human GLP1R expressed with mouse IgG2a Fc (hGLP1R-mFc; SEQ ID NO: 63), an in-line fusion protein of human desA-GLP1 and GLP1R-MMH (hdesA-GLP1_GLP1R-MMH; SEQ ID NO: 62), Macaca fascicularis GLP1R-MMH (mfGLP1R-MMH; SEQ ID NO: 60) or 100 nM mouse GLP1R-MMH (mGLP1R-MMH; SEQ ID NO: 61) prepared in HBS-ET running buffer were injected over the GLP1R mAb captured surface for 150 sec at a flow rate of 30 μL/min and their dissociation in HBS-ET running buffer was monitored for 10 minutes. At the end of each cycle, the GLP1R mAb capture surface was regenerated using a 12 sec injection of 20 mM phosphoric acid.
The association rate (ka) and dissociation rate (Kd) were determined by fitting the real-time binding sensorgrams to a 1:1 binding model with mass transport limitation using Scrubber 2.0 c curve-fitting software. Binding dissociation equilibrium constant (KD) and dissociative half-life (t½) were calculated from the kinetic rates as: […]

GLP1R humanized mice = test: GLP1-induced hypoglycemia (Exendin-4 challenge) in GLP1R humanized mice, glucose AUC (Example 6); format: in vivo; conditions: for Normalized glucose AUC during Exendin-4 challenge: Exendin-4 at 0-min, mean
Procedure: Thirty-nine, 2.5-month-old male GLP1R humanized mice were randomly divided into one group of sixteen mice, two groups of eight mice, and one group of seven mice. On Day 0, the group of sixteen animals (Groups 1 and 2) were administered subcutaneously (s.c.) with a hIgG4 isotype control antibody (referred to as isotype control, dose of 10 mg/kg). […] The group of seven animals (Group 5) was administered s.c. (dose of 10 mg/kg) with mAb36986. […] […] At the same time point, animals in Groups 3, 4, and 5 were administered i.p. with Exendin-4 (dose of 0.01 mg/kg). For all animals, blood glucose levels were measured with a handheld glucometer immediately before and 15, 30, 60, and 120 minutes after saline or Exendin-4 administration. All animals remained in their assigned groups until the study completion on Day 80. With animals in Groups 1, 2, 4, and 5, the Exendin-4 challenge was repeated on Days 3, 7, 15, 21, 29, 65, and 80.
The AUC value of each animal at each challenge was normalized to the mean AUC value of Group 1. Statistical analyses were performed by one-way ANOVA followed by Bonferroni post-hoc tests, comparing Groups 1, 3, 4, or 5 to Group 2, for each challenge.

B1: mAb37639: fully human anti-GLP1R antagonist antibody; HCVR/LCVR SEQ ID NOs: 22/30; heavy/light chain 36/38 (antibody)
heavy: EVQLLESGGGVVQPGGSLRLSCVASGFTFSSYAMSWVRQAPGKGLEWVSSISGSGGSTDNADSVKGRFTISRDNSKNTLYLQMNSLRAEDTAVYYCAKDRITIFGVVLNGAFDIWGQGTMVTVSSASTKGPSVFPLAPCSRSTSESTAALGCLVKDYFPEPVTVSWNSGALTSGVHTFPAVLQSSGLYSLSSVVTVPSSSLGTKTYTCNVDHKPSNTKVDKRV[human IgG4 Fc with S228P (EU numbers) not printed]
light: DIQMTQSPSSLSASVGDRVTITCQASQDIRNYLNWYQQKPGKAPKLLIYDASNLETGVPSRFSGSGSGTDFTFTISSLQPEDIATYFCQQYDNLFTFGPGTKVDIKRTVAAPSVFIFPPSDEQLKSGTASVVCLLNNFYPREAKVQWKVDNALQSGNSQESVTEQDSKDSTYSLSSTLTLSKADYEKHKVYACEVTHQGLSSPVTKSFNRGEC
notes: fully human anti-GLP1R antagonist antibody; heavy/light chain 36/38
[1]; 25° C.
  ka: 137000 M⁻¹ s⁻¹
  kd: 0.000195 s⁻¹
[1]; 37° C.
  ka: 215000 M⁻¹ s⁻¹
  kd: 0.000418 s⁻¹

B2: mAb36986: fully human anti-GLP1R antagonist antibody; HCVR/LCVR SEQ ID NOs: 2/10; heavy/light chain 18/20 (antibody)
heavy: QVQLVQSGTEVKKPGASVKVSCMASGYTFTTYGISWVRQAPGQGLEWMGWISAYNGNTKYAQRLQGRVTMTTDTSTTTAYMGLRGLRSDDTAVYFCARVTLSGRFDYWGQGTLVTVSPASTKGPSVFPLAPCSRSTSESTAALGCLVKDYFPEPVTVSWNSGALTSGVHTFPAVLQSSGLYSLSSVVTVPSSSLGTKTYTCNVDHKPSNTKVDKRV[human IgG4 Fc with S228P (EU numbers) not printed]
light: DIQMTQSPSSLSASVGDRVTITCQASQDISDYLNWYQQKPGKAPKLLIYDASNLETGVPSRFSGSGSGTDFTFTIRSLQPEDIATYYCQQYDNLPYTFGQGTKLEIKRTVAAPSVFIFPPSDEQLKSGTASVVCLLNNFYPREAKVQWKVDNALQSGNSQESVTEQDSKDSTYSLSSTLTLSKADYEKHKVYACEVTHQGLSSPVTKSFNRGEC
notes: fully human anti-GLP1R antagonist antibody; heavy/light chain 18/20
[1]; 25° C.
  ka: 240000 M⁻¹ s⁻¹
  kd: 0.000102 s⁻¹
[1]; 37° C.
  ka: 315000 M⁻¹ s⁻¹
  kd: 0.000501 s⁻¹
GLP1R humanized mice; 10 mg/kg s.c.
  correction of Exendin-4 induced hypoglycemia: correction of Exendin-4 induced hypoglycemia when Exendin-4 challenge was performed 1, 3, 7, 15, 21, 29, and 65 days post mAb36986 administration, but not when the challenge was performed 80 days post mAb36986 administration
GLP1R humanized mice; 1 d (= 24 h) post test article, test article 3 mg/kg s.c.
  Normalized glucose AUC during Exendin-4 challenge: 96.5**** % of Group 1
GLP1R humanized mice; 1 d (= 24 h) post test article, test article 10 mg/kg s.c.
  Normalized glucose AUC during Exendin-4 challenge: 106.7**** % of Group 1
GLP1R humanized mice; 3 d post test article, test article 3 mg/kg s.c.
  Normalized glucose AUC during Exendin-4 challenge: 108.7**** % of Group 1
GLP1R humanized mice; 3 d post test article, test article 10 mg/kg s.c.
  Normalized glucose AUC during Exendin-4 challenge: 116.6**** % of Group 1
GLP1R humanized mice; 7 d post test article, test article 3 mg/kg s.c.
  Normalized glucose AUC during Exendin-4 challenge: 108.6**** % of Group 1
GLP1R humanized mice; 7 d post test article, test article 10 mg/kg s.c.
  Normalized glucose AUC during Exendin-4 challenge: 107.7**** % of Group 1
GLP1R humanized mice; 15 d post test article, test article 3 mg/kg s.c.
  Normalized glucose AUC during Exendin-4 challenge: 102.2**** % of Group 1
GLP1R humanized mice; 15 d post test article, test article 10 mg/kg s.c.
  Normalized glucose AUC during Exendin-4 challenge: 107.5**** % of Group 1
GLP1R humanized mice; 21 d post test article, test article 3 mg/kg s.c.
  Normalized glucose AUC during Exendin-4 challenge: 93.2*** % of Group 1
GLP1R humanized mice; 21 d post test article, test article 10 mg/kg s.c.
  Normalized glucose AUC during Exendin-4 challenge: 108.7**** % of Group 1
GLP1R humanized mice; 29 d post test article, test article 3 mg/kg s.c.
  Normalized glucose AUC during Exendin-4 challenge: 84.0*** % of Group 1
GLP1R humanized mice; 29 d post test article, test article 10 mg/kg s.c.
  Normalized glucose AUC during Exendin-4 challenge: 103.5**** % of Group 1
GLP1R humanized mice; 65 d post test article, test article 3 mg/kg s.c.
  Normalized glucose AUC during Exendin-4 challenge: 67.4 % of Group 1
GLP1R humanized mice; 65 d post test article, test article 10 mg/kg s.c.
  Normalized glucose AUC during Exendin-4 challenge: 95.8**** % of Group 1
GLP1R humanized mice; 80 d post test article, test article 3 mg/kg s.c.
  Normalized glucose AUC during Exendin-4 challenge: 70.4 % of Group 1
GLP1R humanized mice; 80 d post test article, test article 10 mg/kg s.c.
  Normalized glucose AUC during Exendin-4 challenge: 74.2 % of Group 1
GLP1R humanized mice; single 3 mg/kg dose s.c.
  correction of Exendin-4 induced hypoglycemia: correction of Exendin-4 induced hypoglycemia when Exendin-4 challenge was performed 1, 3, 7, 15, 21, and 29 days post mAb36986 administration, but not when the challenge was performed 65 and 80 days post mAb36986 administration
GLP1R humanized mice; single dose, mice
  duration of correction of GLP1-induced hypoglycemia: one to two months

Marks after values point to notes of the source that are not given here.
